Data published in publication PMC4336329 (PLoS ONE, 2015).
Hit rate of the full screen: of about 310,000 compounds, about 14,000 (4.5%) showed an effect of 50% or more. The effect is printed as a negative number. The list shows a part of the results.

Biological target: human ether-à-go-go-related gene (hERG) potassium channel (human, UniProt Q12809)
Experiment: primary screen, population patch clamp on CHO cells stably expressing hERG
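Also: peak tail current of the secondary pulse compared with the same well before compound.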

Sequence of human ether-à-go-go-related gene (hERG) potassium channel (Q12809 whole entry, looked up): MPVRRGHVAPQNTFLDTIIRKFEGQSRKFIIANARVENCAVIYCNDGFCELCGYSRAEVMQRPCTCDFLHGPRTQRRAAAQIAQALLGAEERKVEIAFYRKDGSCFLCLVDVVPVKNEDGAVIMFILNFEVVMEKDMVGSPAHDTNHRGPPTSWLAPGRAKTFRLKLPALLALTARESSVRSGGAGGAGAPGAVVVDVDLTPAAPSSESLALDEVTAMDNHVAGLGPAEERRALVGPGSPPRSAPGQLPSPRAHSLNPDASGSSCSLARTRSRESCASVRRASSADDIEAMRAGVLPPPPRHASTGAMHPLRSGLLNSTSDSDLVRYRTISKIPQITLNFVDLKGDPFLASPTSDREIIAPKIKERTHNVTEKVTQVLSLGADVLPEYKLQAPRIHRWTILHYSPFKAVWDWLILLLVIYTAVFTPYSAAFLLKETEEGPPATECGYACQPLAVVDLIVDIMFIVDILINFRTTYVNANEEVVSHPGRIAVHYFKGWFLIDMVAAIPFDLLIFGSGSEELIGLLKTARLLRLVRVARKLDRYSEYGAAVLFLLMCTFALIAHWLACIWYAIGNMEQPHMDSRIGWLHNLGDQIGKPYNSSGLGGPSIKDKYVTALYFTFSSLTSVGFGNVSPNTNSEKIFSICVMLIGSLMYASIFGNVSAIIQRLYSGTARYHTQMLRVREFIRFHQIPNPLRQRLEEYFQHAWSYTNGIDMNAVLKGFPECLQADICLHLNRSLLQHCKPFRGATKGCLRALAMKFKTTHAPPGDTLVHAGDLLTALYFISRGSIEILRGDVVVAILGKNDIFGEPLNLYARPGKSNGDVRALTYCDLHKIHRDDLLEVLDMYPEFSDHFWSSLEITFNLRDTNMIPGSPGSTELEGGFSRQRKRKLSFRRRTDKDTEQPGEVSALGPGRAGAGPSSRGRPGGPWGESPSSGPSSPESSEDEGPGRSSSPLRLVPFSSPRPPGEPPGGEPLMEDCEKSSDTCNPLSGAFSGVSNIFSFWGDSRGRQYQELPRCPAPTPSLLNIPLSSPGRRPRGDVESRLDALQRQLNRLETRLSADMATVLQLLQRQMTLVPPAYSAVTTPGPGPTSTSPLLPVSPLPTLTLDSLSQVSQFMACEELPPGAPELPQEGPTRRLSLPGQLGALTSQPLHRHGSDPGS

SMILES	hERG current change (%, negative = inhibition) at 10uM [%]
N#Cc1ccc(S(=O)(=O)N2CCN(Cc3cccs3)CC2)cc1	-61.2
CC(C)(C)OC(=O)N1CCN(C(=O)c2nc[nH]c2C(=O)N2CCN(C(=O)OC(C)(C)C)CC2)CC1	16
O=C(CSc1ncnc2ccccc12)NCCCO	0.643
O=C(NC(Cc1ccc(O)cc1)C(=O)O)c1ccc2c(c1)OCO2 (stereo not shown)	-13.6
CCOC(=O)CNc1c(-c2ccccc2)nc2ccc(Cl)cn12	-64.4
Cc1nc(C)c(C(=O)OCC(=O)N2CCN(c3ccccc3)CC2)s1	-7.09
CCCCN(C)C(=O)c1cn(CC)c2nc(C)ccc2c1=O	-3.49
Cc1nnc(N2C(=O)C(=O)/C(=C(/O)c3ccc4c(c3)CC(C)O4)C2c2ccccc2F)s1 (stereo not shown)	17.7
CCN1C(=O)c2ccccc2S(=O)(=O)c2ccc(C(=O)NCC(OC)OC)cc21	6.16
COc1c2ccoc2nc2c(OC)c(OCC(OC(C)=O)C(C)(C)O)ccc12 (stereo not shown)	17.9
N#CN=C1SCCS1	11.6
O=C(CN1C(=O)CCC1=O)Nc1ccc(S(=O)(=O)N2CCOCC2)cc1	4.4
Nc1cc(C(F)(F)F)ccc1-n1cccc1	16.3
CC1(C)CC(=O)C=C(NC2CCCC(O)C2)C1 (stereo not shown)	15.2
[N-]=[N+]=CC(=O)C(c1ccccc1)(c1ccccc1)c1ccccc1	12.1
O=C(NC1CCCCCCC1)c1cc(-c2ccccn2)nc2ccccc12	2.16
Cc1ccc(OCC(=O)NC(=S)Nc2ccc(S(=O)(=O)Nc3cc(C)on3)cc2)c(Br)c1	4.63
CC(=O)Nc1ccc(S(=O)(=O)N2CCN(c3ccc([N+](=O)[O-])c(NCCN4CCOCC4)c3)CC2)cc1	-20.1
O=C(Cc1ccccc1)Nc1nccs1	-3.43
Cc1ccc(Nc2cc(=O)oc3ccccc23)c(C)c1	-3.54
CCOc1ccc(NC(=O)CC2C(=O)N(c3ccc(OC)cc3)C(=O)N2Cc2ccc(OC)cc2)cc1 (stereo not shown)	-8.72
CCOc1ccc(Oc2ccc(Cl)cc2NC(=O)C2=COCCO2)cc1	-13.1

SMILES	hERG current change (%, negative = inhibition) at 10uM [%]
N#Cc1ccccc1OCC(=O)N(Cc1nnc(-c2ccccc2Cl)o1)C1CC1	-48.7
Cc1cc(S(=O)(=O)NC2CCCC2)ccc1F	-4.33
CCCCOCCCNC(=O)N[C@H](C(=O)OC)C(C)CC (stereo partly shown)	0.929
COC(=O)C(Cc1ccccc1)NC(=O)CCC(=O)NC(C)CCc1ccccc1 (stereo not shown)	-3.62
Cc1cc(C)c2cc(CN(Cc3ccco3)C(=O)NCc3ccccc3)c(=O)[nH]c2c1	-12.4
CC(=O)Nc1ccc(NC(=O)c2ccc(N(Cc3ccccc3C)S(C)(=O)=O)cc2)cc1	-7.68
CC(C(=O)Nc1sc2c(c1C(=O)NCc1ccco1)CCCC2)N1C(=O)c2ccccc2C1=O (stereo not shown)	9.84
CC(NC(=S)Nc1ccc(OC(F)F)cc1)c1ccc(F)cc1 (stereo not shown)	-27.3
CN(CC(=O)Nc1ccc(N2CCOCC2)cc1)C(=O)COc1ccccc1F	-5.44
CCn1c2ccccc2c2nnc(SCC(=O)c3c(N)n(C)c(=O)n(C)c3=O)nc21	16.2
CCO[C@@H]1OC(C(=O)NCc2nc3ccccc3[nH]2)=C[C@H](C(C)(C)C)[C@H]1CCCO	-26
Cc1ccc(NC2c3ccccc3C(=O)N2CCN2CCOCC2)cc1 (stereo not shown)	-12.9
O=C(c1cccnc1)N(Cc1ccccc1)C1(C(=O)Nc2ccccc2)CCCCC1	-20.6
C=CCn1c(CCNC(=O)c2cccs2)nnc1SCC(=O)Nc1cccc(Cl)c1C	-57.6
Cc1cc(Br)ccc1NC(=S)Nc1cccc([N+](=O)[O-])c1	-8.01
Cc1cc(C)c2sc(NC(=O)CN3C(=O)CCC3=O)nc2c1	-28.1
CC(C)C[C@@]12C(=O)N(c3cccc(F)c3)C(=O)N1[C@H](c1ccc(F)cc1)[C@@H]1C(=O)N(C3CCCCC3)C(=O)[C@@H]12	-15.1
COc1cc2c(cc1OC)CN(C(=O)COc1ccc(C)c(C)c1)CC2	-11.9
CCC1Oc2ccc(C)cc2N(CC(=O)NCC2COc3ccccc3O2)C1=O (stereo not shown)	-31.3
CC(C)(C)c1ccc(C(=O)NCC(=O)N2CCCCCC2)cc1	1.16
COc1ccc(CC(=O)NCc2ccccc2Cl)cc1S(=O)(=O)N1CCOCC1	-14.8
CN(C)S(=O)(=O)c1cccc(C(=O)NCc2cccs2)c1	-14.4

SMILES	hERG current change (%, negative = inhibition) at 10uM [%]
N#Cc1nc(COc2ccccc2)oc1NCCN1CCOCC1	-11.3
COC(=O)c1ccccc1NC(=O)c1cnn2c(C)cc(C)nc12	-18
O=C(CCc1ccccc1)OCCOC(=O)CCc1ccccc1	22.1
CCN1CCN(C(c2cccs2)C(C)NC(=O)c2ccco2)CC1 (stereo not shown)	10.6
Fc1cc(F)c2nc(N3CCCCC3)sc2c1	4.43
Br.Cc1csc(=Nc2ccccc2)n1Cc1ccco1	13.8
CN(C1CCCC1)C1CCN(C(=O)CNC(=O)/C=C/c2cccc(C(F)(F)F)c2)CC1	-62.6
O=C(C1CCC(CNc2nc(=S)[nH]c3ccccc23)CC1)N1CCN(c2ccccn2)CC1 (stereo not shown)	11.6
CCc1ccc(-c2cc(C)no2)cc1S(=O)(=O)N1CCN(c2cc(C)ccc2C)CC1	-22
O=C(Nc1nc(-c2ccccn2)cs1)c1ccc2c(c1)OCCO2	14.9
Nc1nc(-c2ccccc2)[nH]c(=O)c1N=O	13.5
CC(=O)c1ccc(NC(=O)C(C)N(C)CC(=O)Nc2cccc(F)c2)cc1 (stereo not shown)	-17.3
Cc1cc(C(C)(C)C)oc1C(=O)N(CC(=O)NC1CCCC1)c1ccc(F)cc1	-0.604
CC(=O)c1cccc(CN2CCC(n3nccc3NC(=O)CCc3ccccc3)CC2)c1	-25.1
CCOC(=O)CSc1nc2ccccc2n1C(=O)OCC	-4.27
Cc1ccc(CN2CCC(n3nccc3NC(=O)CCOc3ccccc3)CC2)cc1C	-48.2
CCOC(=O)c1nnn(-c2ccc([N+](=O)[O-])cc2)c1C	8.05
O=C(Cn1cnc2ccc(Br)cc2c1=O)c1cccs1	9.37
CCN(CC(=O)Nc1sc2c(c1C#N)CCCC2)CC(=O)NC1CCS(=O)(=O)C1 (stereo not shown)	-24.4
COc1ccc(/C=N/n2nnnc2N)c(OC)c1	1.2
Cc1ccc(-c2nnc(NCc3ccccc3)c3ccccc23)cc1	-0.0187
CCCCOC(=O)C(C)Nc1n[nH]c(=S)[nH]c1=O (stereo not shown)	13.1

SMILES	hERG current change (%, negative = inhibition) at 10uM [%]
Cn1c(C(=O)NCC2CCCO2)cc2c(=O)n(C)c3ccccc3c21 (stereo not shown)	1.32
CCOC(=O)c1cnc2ccc(Cl)cc2c1NCCN(C)C	-22.8
O=C1NC2(CCCC2)N=C1c1ccc(F)cc1	-8.42
Cc1ccc2nc(N3C(=O)C(O)=C(C(=O)c4ccc(C)o4)C3c3ccc(O)cc3)sc2c1 (stereo not shown)	15.8
Cc1noc2ncnc(N3CCCC3)c12	5.93
O=C(OCc1nnc(-c2ccccc2)o1)c1cccc(-n2cnnn2)c1	7.77
CCSc1nc2[nH]ncc2c(=O)[nH]1	20.5
CCOc1ccc(CCNC(=O)COC(=O)/C=C/c2ccccc2OC)cc1OCC	-6.23
O=C(Cn1ccc2ccccc2c1=O)NCCC(=O)Nc1ccc2c(c1)OCCO2	-0.814
NC(=O)Cc1nc(-c2ccc(Br)cc2)cs1	4.93
CCNC(=O)c1ccc(NS(=O)(=O)c2ccccc2)cc1	1.97
Cc1ccc(CNC(=O)Nc2ccccc2)n1C	12.3
O=C(Nc1ccc2oc(-c3cccc(F)c3)nc2c1)c1ccccc1F	4.1
CC(=O)N/C(=C/c1ccc(OC(F)F)cc1)C(=O)O	3.4
CC(CC(=O)NC1CCCCC1)S(=O)(=O)c1ccc2c(c1)CCN2C(=O)C1CC1 (stereo not shown)	28.2
CC#CC#Cc1cccc(=O)o1	13.5
CCN1CCN(c2ccc(NC(=O)c3ccc4c(c3)[nH]c(=O)n4Cc3ccc(OC)cc3)cc2)CC1	1.62
Cc1nc2ccccn2c1C(=O)NNS(=O)(=O)c1ccc(Cl)cc1	0.311
COCCN(C(=O)Cc1cccs1)C(C(=O)NCc1ccc(OC)cc1)c1ccc(C)cc1 (stereo not shown)	-14.8
O=C1CSC(c2c(F)cccc2Cl)N1c1cccc(F)c1 (stereo not shown)	-27
Cc1ccc(NC(=O)CCC(=O)NNC(=O)c2ccccc2[N+](=O)[O-])c(C)c1	16.3
Cc1ccc(NC(=S)Nc2ccc(F)cc2)c(C)c1	19.6
